The values below come from the supplement of paper PMC3334620.

Over roughly 33,000 sequences, “E-score (-0.5 to 0.5)” has its median near -0.013; the highest 2% begin near 0.3. The list shows a part of the results.

The target in the test is T1, Msn1 (UniProt P22148).
T1 sequence: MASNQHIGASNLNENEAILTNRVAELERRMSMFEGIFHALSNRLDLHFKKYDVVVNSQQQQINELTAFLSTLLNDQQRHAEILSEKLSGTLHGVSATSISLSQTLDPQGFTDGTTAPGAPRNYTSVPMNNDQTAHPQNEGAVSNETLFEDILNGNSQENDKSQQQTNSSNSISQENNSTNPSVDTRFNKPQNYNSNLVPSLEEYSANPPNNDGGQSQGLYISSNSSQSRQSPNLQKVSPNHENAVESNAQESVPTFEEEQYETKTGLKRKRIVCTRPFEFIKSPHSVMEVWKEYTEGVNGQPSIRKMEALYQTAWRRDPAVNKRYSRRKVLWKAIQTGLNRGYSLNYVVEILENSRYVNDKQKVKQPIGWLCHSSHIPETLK
Description: PBM E-score (8-mer binding enrichment) (E-score (-0.5 to 0.5)); higher = stronger / more preferred TF binding; most listed sequences are background and not binding sites. The conditions noted are these: protein concentration: 200 nM; construct: GST-full length. The protocol: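 Universal 'all 10-mer' protein binding microarrays (Agilent AMADID 015681) probed with GST-tagged S. cerevisiae TFs (full-length or DBD) made by in vitro transcription/translation (PURExpress), about 100-200 nM. Bound TF was detected with fluorescent anti-GST. Each ungapped 8-mer (which stands for itself and its reverse complement) is scored by the PBM enrichment score (E-score), a modified Wilcoxon-Mann-Whitney statistic from -0.5 to +0.5, computed with the Universal PBM Analysis Suite. Scale: above 0.35 generally sequence-specific binding.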
For GCGCTTAA, the “PBM E-score” value is -0.139.

For CGACTTCC, the “PBM E-score” value is -0.11.

With TCGTGGCA, the “PBM E-score” value was -0.0121.

Regarding AGGTCGCG, the “PBM E-score” value worked out at 0.0713.

On to ACCTACCA, for which the “PBM E-score” value was -0.0797.

With CGAGAGGC, the “PBM E-score” value is -0.138.

As to GCGTCTAA, the “PBM E-score” value came to 0.0281.

As for AAATACTC, the “PBM E-score” value came to 0.0436.

ATGGCGGG: the “PBM E-score” value is -0.0236.

Consider CGCTAGAA, for which the “PBM E-score” value is -0.232.

For the sequence AGTTGAGG, the “PBM E-score” value was -0.0851.

Turning to ACTTATCC, the “PBM E-score” value was 0.095.

AAGGTTTC: the “PBM E-score” value is -0.0588.

Regarding GCCTGGAC, the “PBM E-score” value is -0.0678.

ACCTGCTA: the “PBM E-score” value is -0.0802.

As for GAGCTTGA, the “PBM E-score” value was -0.0834.

Turning to CGGAACCC, the “PBM E-score” value came to 0.0374.

Regarding AGAGAAGG, the “PBM E-score” value is -0.306.

For ATTGAATC, the “PBM E-score” value was 0.0318.

Turning to ATTTCACG, the “PBM E-score” value came out at 0.0828.

Consider AGACTAAG, for which the “PBM E-score” value was 0.0762.

Regarding TCTTCTCA, the “PBM E-score” value is -0.139.

Take CGCGGGAG: the “PBM E-score” value is -0.238.

Regarding ATTAAAAC, the “PBM E-score” value stood at 0.156.

Consider GCGCCAAC, for which the “PBM E-score” value was 0.0698.

As to ACCAGAGT, the “PBM E-score” value is -0.193.

Consider AGAGTCCT, for which the “PBM E-score” value was -0.0894.

On to GATCCTGC, for which the “PBM E-score” value is -0.042.

CACTTATG: the “PBM E-score” value worked out at 0.092.

As for GACCCAGA, the “PBM E-score” value is -0.039.

On to CCCGAAGC, for which the “PBM E-score” value stood at 0.0581.

As to TACTGCCA, the “PBM E-score” value turned out to be 0.124.

Take AGTGTACC: the “PBM E-score” value was -0.0146.

Regarding GCCGGCGC, the “PBM E-score” value was 0.0222.

For the sequence CTGGTTCC, the “PBM E-score” value was -0.169.

CTTTTTTC: the “PBM E-score” value came out at 0.178.

Turning to CCGATGAA, the “PBM E-score” value stood at 0.0935.

With TAGCCCGA, the “PBM E-score” value was found to be 0.286.

ATGCGCCG: the “PBM E-score” value stood at 0.195.

Consider AGTGCGCA, for which the “PBM E-score” value amounted to 0.0141.

For CAGGAGCC, the “PBM E-score” value is -0.277.

Take ACTACGAT: the “PBM E-score” value worked out at 0.0187.

On to GTGGCACA, for which the “PBM E-score” value is -0.116.

Turning to AGGTTGGC, the “PBM E-score” value was -0.309.

Consider TGATTCCA, for which the “PBM E-score” value was -0.0819.

Take ACACCTTA: the “PBM E-score” value turned out to be 0.133.

For ATGCGCTC, the “PBM E-score” value was -0.119.

CACATGTC: the “PBM E-score” value amounted to 0.431.

On to ATTGTCGA, for which the “PBM E-score” value turned out to be 0.144.

For ACATAAGA, the “PBM E-score” value was determined as 0.146.

Regarding AATGCAGG, the “PBM E-score” value amounted to 0.0132.

For the sequence AGATTCTC, the “PBM E-score” value was -0.158.

As to AACAATAG, the “PBM E-score” value is -0.0379.

Take CTGATCAG: the “PBM E-score” value is -0.047.

As to GCACTTGA, the “PBM E-score” value is 0.0677.

On to CGTATCAA, for which the “PBM E-score” value is 0.0969.

For the sequence ATCACGAC, the “PBM E-score” value stood at 0.117.

Take CAATTCCG: the “PBM E-score” value is 0.00583.

Take GACAGACC: the “PBM E-score” value amounted to 0.0373.

In the case of AACAGACA, the “PBM E-score” value was determined as 0.295.

Consider AACAGCAG, for which the “PBM E-score” value was -0.0819.

AGATGCAA: the “PBM E-score” value was -0.212.

Consider AAGACTGC, for which the “PBM E-score” value was -0.0856.

With ACACAGCA, the “PBM E-score” value was 0.0778.

For the sequence AGCGACTG, the “PBM E-score” value is -0.127.

For the sequence TAAATAGA, the “PBM E-score” value was -0.163.

Take CAGGAGCA: the “PBM E-score” value is -0.122.

Regarding GCGGCCGA, the “PBM E-score” value is -0.0302.

As to CATCGTCC, the “PBM E-score” value is -0.0789.

ATCACACG: the “PBM E-score” value amounted to 0.0254.

In the case of ATTCTGAA, the “PBM E-score” value came out at 0.0386.

On to CGGTTTGA, for which the “PBM E-score” value is -0.00161.

Take CACCGCGC: the “PBM E-score” value is -0.137.

For AAGTTTAG, the “PBM E-score” value was found to be 0.103.

Regarding AGGGTTTG, the “PBM E-score” value was -0.0242.

On to AGCCTCAG, for which the “PBM E-score” value is -0.251.

Take CCGAGCGG: the “PBM E-score” value is -0.119.

Take AGGAATCG: the “PBM E-score” value turned out to be 0.00779.

In the case of CATGGTGC, the “PBM E-score” value was -0.0558.

Take GTCATTTA: the “PBM E-score” value amounted to 0.156.

Regarding ACTTAGGG, the “PBM E-score” value was -0.0588.

Turning to CGGTTTGC, the “PBM E-score” value was -0.192.

As to AAAGATTG, the “PBM E-score” value stood at 0.0201.

Consider GGGCGGCA, for which the “PBM E-score” value was -0.0793.

For CTGAATCC, the “PBM E-score” value came to 0.0447.

For the sequence GGATGAGA, the “PBM E-score” value was -0.115.
